We go through 56 molecules from paper PMC4336329 (PLoS ONE, 2015).

Screen size: about 310,000 compounds; about 2,200 (0.71%) showed an effect of 50% or more. Effects have a minus sign here. The list shows a part of the results.

Sequence of human ether-à-go-go-related gene (hERG) potassium channel (Q12809 whole entry, looked up): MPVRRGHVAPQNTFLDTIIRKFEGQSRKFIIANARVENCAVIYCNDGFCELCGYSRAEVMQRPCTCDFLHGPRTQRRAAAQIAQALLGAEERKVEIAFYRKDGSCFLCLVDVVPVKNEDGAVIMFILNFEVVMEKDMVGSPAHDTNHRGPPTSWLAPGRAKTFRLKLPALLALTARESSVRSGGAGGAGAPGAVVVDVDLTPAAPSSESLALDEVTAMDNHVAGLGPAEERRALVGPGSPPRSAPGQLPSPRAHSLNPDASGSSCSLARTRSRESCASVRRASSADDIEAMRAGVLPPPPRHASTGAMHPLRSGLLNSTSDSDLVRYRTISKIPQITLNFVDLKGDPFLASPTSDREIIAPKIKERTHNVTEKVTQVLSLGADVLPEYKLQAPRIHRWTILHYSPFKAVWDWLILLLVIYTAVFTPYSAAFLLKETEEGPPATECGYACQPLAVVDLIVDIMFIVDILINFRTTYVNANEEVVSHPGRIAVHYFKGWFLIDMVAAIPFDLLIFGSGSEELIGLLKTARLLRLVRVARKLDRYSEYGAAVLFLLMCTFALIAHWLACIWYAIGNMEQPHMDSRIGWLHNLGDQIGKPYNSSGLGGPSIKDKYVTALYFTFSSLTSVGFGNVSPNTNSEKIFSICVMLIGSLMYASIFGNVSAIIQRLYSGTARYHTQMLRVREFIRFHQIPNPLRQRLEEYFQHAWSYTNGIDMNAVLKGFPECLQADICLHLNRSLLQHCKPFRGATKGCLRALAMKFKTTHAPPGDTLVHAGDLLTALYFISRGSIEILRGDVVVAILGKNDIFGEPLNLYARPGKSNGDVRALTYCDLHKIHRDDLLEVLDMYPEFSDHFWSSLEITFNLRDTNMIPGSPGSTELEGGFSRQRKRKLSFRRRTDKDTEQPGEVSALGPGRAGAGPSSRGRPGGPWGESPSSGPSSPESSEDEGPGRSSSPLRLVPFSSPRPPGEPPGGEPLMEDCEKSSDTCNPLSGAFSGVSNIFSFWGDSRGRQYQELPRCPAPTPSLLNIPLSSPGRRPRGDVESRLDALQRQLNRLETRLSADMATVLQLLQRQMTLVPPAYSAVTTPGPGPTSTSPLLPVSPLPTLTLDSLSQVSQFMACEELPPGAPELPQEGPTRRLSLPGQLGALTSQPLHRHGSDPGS

The assay has as its target human ether-à-go-go-related gene (hERG) potassium channel (human, UniProt Q12809). Briefly: primary screen, population patch clamp on CHO cells stably expressing hERG.
Regarding `CCOC(=O)c1c(NC(=O)CSc2nnc3c(n2)[nH]c2ccc(F)cc23)sc(C(C)=O)c1C`, the “hERG current change (%, negative = inhibition) at 1uM” value worked out at 14.2%.

As to `COCc1ccc(C(=O)NC2CC(C)(C)Cc3c2cnn3-c2ccc(OC)cc2)o1` (centres unmarked), the “hERG current change (%, negative = inhibition) at 1uM” value is 5.02%.

Regarding `O=C(O)C1CCN(C(=O)c2ccc(Cl)cc2)CC1`, the “hERG current change (%, negative = inhibition) at 1uM” value is 11.2%.

In the case of `CC(=O)N(C)c1ccc(NC(=O)C(Sc2ccccc2)c2ccccc2)cc1` (centres unmarked), the “hERG current change (%, negative = inhibition) at 1uM” value is given as 11.7%.

Turning to `CCN1/C(=C/C=C/C=C/c2sc3ccccc3[n+]2CC)Sc2ccccc21.[I-]`, the “hERG current change (%, negative = inhibition) at 1uM” value is given as -37.5%.

`COc1ccccc1OCc1cc(C(=O)N2CCN(C)C(c3ccccc3)C2)no1` (centres unmarked): the “hERG current change (%, negative = inhibition) at 1uM” value is on record as -11.4%.

In the case of `Cc1ccc(N(CC(=O)NCc2ccco2)C(=O)CNS(=O)(=O)c2ccc(F)cc2)c(C)c1`, the “hERG current change (%, negative = inhibition) at 1uM” value worked out at 11.2%.

As for `Cn1c2c(c(=O)n3ncnc13)CCCC2`, the “hERG current change (%, negative = inhibition) at 1uM” value is listed as 14.7%.

As for `Cc1cc(=O)[nH]c(SCC(=O)N2CCCCCC2)n1`, the “hERG current change (%, negative = inhibition) at 1uM” value stood at 15.7%.

Regarding `Cc1cccc(CSCC(=O)NCc2ccc(S(N)(=O)=O)cc2)c1`, the “hERG current change (%, negative = inhibition) at 1uM” value stood at 21.9%.

Consider `CC1(C)CC2CC(C)(CN2Cc2cccc([N+](=O)[O-])c2)C1` (centres unmarked), for which the “hERG current change (%, negative = inhibition) at 1uM” value turned out to be 19.1%.

Take `CCCC(=O)NCCCc1nc2ccccc2n1CCC`: the “hERG current change (%, negative = inhibition) at 1uM” value is 5%.

As for `COC(=O)C(C)N(C(=O)c1ccc(Cl)cc1)c1c(C)cccc1C` (centres unmarked), the “hERG current change (%, negative = inhibition) at 1uM” value is reported as -1.75%.

For the molecule `COc1ccc(Cc2nnc(Cl)c3ccccc23)cc1OC`, the “hERG current change (%, negative = inhibition) at 1uM” value is 7.12%.

For `COc1cc(NS(=O)(=O)c2cc(C)ccc2OC)c(OC)cc1Cl`, the “hERG current change (%, negative = inhibition) at 1uM” value turned out to be 7.54%.

With `COC(=O)CNC(=O)CCCCC(=O)NCC(=O)OC`, the “hERG current change (%, negative = inhibition) at 1uM” value is listed as 19.2%.

Regarding `COc1ccc(C(=O)C2CCCN(C(=O)c3ccnn3C)C2)c(C)c1` (centres unmarked), the “hERG current change (%, negative = inhibition) at 1uM” value is on record as 4.96%.

On to `O=C(NCCCN1CCCCC1)C1(S(=O)(=O)c2ccc(Cl)cc2)CC1`, for which the “hERG current change (%, negative = inhibition) at 1uM” value is -7.63%.

Take `Cc1ccccc1Cn1c(NC2CCCC2)nc2c1c(=O)[nH]c(=O)n2C`: the “hERG current change (%, negative = inhibition) at 1uM” value worked out at 10.3%.

On to `CN(C)C(=O)c1ccc(NC(=O)COC(=O)C2CCN(S(=O)(=O)c3ccc4c(c3)OCCO4)CC2)cc1`, for which the “hERG current change (%, negative = inhibition) at 1uM” value was determined as 11.5%.

Regarding `O=C(CSCC(=O)N1CCCc2ccccc21)Nc1nc(-c2ccccc2)cs1`, the “hERG current change (%, negative = inhibition) at 1uM” value is listed as 11.5%.

On to `O=C(CSc1nc2ccccc2c(=O)[nH]1)Nc1ccc(N2CCOCC2)cc1`, for which the “hERG current change (%, negative = inhibition) at 1uM” value stood at 6.08%.

For the molecule `Cc1cc(NC(=O)C2CCCN(S(=O)(=O)c3cnc[nH]3)C2)ccc1Br` (centres unmarked), the “hERG current change (%, negative = inhibition) at 1uM” value is reported as 13.9%.

On to `O=S(=O)(c1ccc2ccccc2c1)N1CCc2ccccc21`, for which the “hERG current change (%, negative = inhibition) at 1uM” value turned out to be 12.2%.

Consider `O=[N+]([O-])c1ccc(OCCCOc2cccc3cccnc23)cc1`, for which the “hERG current change (%, negative = inhibition) at 1uM” value is recorded as 3.42%.

`COc1cccc([C@@H]2CC=C(C(=O)O)[C@H](c3ccc(Cl)cc3)N2S(=O)(=O)c2ccc(C)cc2)c1`: the “hERG current change (%, negative = inhibition) at 1uM” value was found to be 13.7%.

For `O=C(O)CSc1nnc(-c2cccc(S(=O)(=O)N3CCOCC3)c2)n1-c1cccc(Cl)c1`, the “hERG current change (%, negative = inhibition) at 1uM” value is listed as 0.918%.

For the molecule `COc1ccc(CN2CCC(=O)N([C@H](CO)c3ccccc3)CC2)cc1`, the “hERG current change (%, negative = inhibition) at 1uM” value is recorded as 13.3%.

On to `Cc1ccn2c(=O)nc(SCC(=O)Nc3cccc4ccccc34)nc2c1`, for which the “hERG current change (%, negative = inhibition) at 1uM” value was 5.56%.

Take `Cc1ccccc1NS(=O)(=O)c1csc(C(N)=O)c1`: the “hERG current change (%, negative = inhibition) at 1uM” value is 20%.

Turning to `O=C(COc1ccc2ccc(=O)oc2c1)NC1CCCCC1`, the “hERG current change (%, negative = inhibition) at 1uM” value came out at 3.46%.

Regarding `Cc1ccc(NC(=S)N2CCC(NC(=O)c3ccc(F)cc3)CC2)cc1`, the “hERG current change (%, negative = inhibition) at 1uM” value was 8.66%.

In the case of `Cc1ccc(C)c(NC(=O)CSc2n[nH]c(-c3ccccn3)n2)c1`, the “hERG current change (%, negative = inhibition) at 1uM” value is recorded as 12%.

As to `Cc1cccc(C(=O)Nc2nnc(S(=O)(=O)N3CCC(C)CC3)s2)c1`, the “hERG current change (%, negative = inhibition) at 1uM” value came out at 0.95%.

As to `NC(=O)C[C@@H]1NC(=O)[C@H](CCC(=O)O)NC(=O)c2cc([N+](=O)[O-])cc(I)c2OCC[C@@H](C(N)=O)NC1=O`, the “hERG current change (%, negative = inhibition) at 1uM” value stood at 6.69%.

Turning to `COc1ccc(NC(=O)CCn2nnc(-c3ccc(C)cc3)n2)cc1OC`, the “hERG current change (%, negative = inhibition) at 1uM” value was 18.3%.

With `OCCNc1ccc(Cl)cc1`, the “hERG current change (%, negative = inhibition) at 1uM” value is given as 12.2%.

In the case of `CC(C)(C)OC(=O)N1CCC[C@H]1C(=O)N/N=C/c1cccc2cccnc12`, the “hERG current change (%, negative = inhibition) at 1uM” value is 8.81%.

`CC(CCc1ccccc1)NC(=O)c1ccc(Cl)nc1` (centres unmarked): the “hERG current change (%, negative = inhibition) at 1uM” value is recorded as 0.944%.

For the molecule `CC1CCCCC1NC(=O)Cn1cc([N+](=O)[O-])ccc1=O` (centres unmarked), the “hERG current change (%, negative = inhibition) at 1uM” value amounted to 9.78%.

With `CCN(CC(=O)NCc1cccs1)S(=O)(=O)c1cc(NC(C)=O)ccc1OC`, the “hERG current change (%, negative = inhibition) at 1uM” value stood at 5.11%.

Consider `COc1ccc(C2CC(=O)c3cnn(-c4nc(C)cc(C)n4)c3C2)cc1` (centres unmarked), for which the “hERG current change (%, negative = inhibition) at 1uM” value worked out at 6.08%.

Turning to `Cc1ccc(C2/C(=C(/O)c3cnn(-c4ccccc4)c3C)C(=O)C(=O)N2CCN2CCOCC2)o1` (centres unmarked), the “hERG current change (%, negative = inhibition) at 1uM” value is recorded as 9.19%.

As for `CC(=O)c1cc(CN2CCN(C3CCCCC3)C(CCO)C2)cs1` (centres unmarked), the “hERG current change (%, negative = inhibition) at 1uM” value is 0.381%.

Turning to `CCOC(=O)N1CCN(CC(=O)Nc2c(C(=O)OC)[nH]c3cccc(Cl)c23)CC1`, the “hERG current change (%, negative = inhibition) at 1uM” value is 14.8%.

Turning to `C/C(=N\O)C(C)(C)Nc1cccc(F)c1`, the “hERG current change (%, negative = inhibition) at 1uM” value was 11.9%.

For the molecule `O=C(c1c(Cl)nc2sccn12)N1CCN(c2cccc(Cl)c2)CC1`, the “hERG current change (%, negative = inhibition) at 1uM” value stood at 2.76%.

On to `Oc1ccccc1-n1nc2ccc3nonc3c2n1`, for which the “hERG current change (%, negative = inhibition) at 1uM” value worked out at 8.13%.

As to `S=C(NCc1ccccn1)Nc1ccc(Br)cc1Cl`, the “hERG current change (%, negative = inhibition) at 1uM” value came to 25%.

For the molecule `C(=N\Nc1nc(-c2ccccn2)nc2ccccc12)/c1ccccc1`, the “hERG current change (%, negative = inhibition) at 1uM” value stood at 16.9%.

With `CCNS(=O)(=O)c1ccc(CCC(=O)Nc2cc(Cl)ccc2Oc2ccccc2)cc1`, the “hERG current change (%, negative = inhibition) at 1uM” value stood at 4.27%.

`C=CCOc1cccc(C2C(C(=O)c3ccc(C)o3)=C(O)C(=O)N2c2nnc(C)s2)c1` (centres unmarked): the “hERG current change (%, negative = inhibition) at 1uM” value is recorded as -0.371%.

Consider `COc1ccc(-c2nc3n(c(=O)c2C#N)CCS3)cc1`, for which the “hERG current change (%, negative = inhibition) at 1uM” value was 2.81%.

With `COC(=O)C1=C(C)OC(N)=C(C#N)C1c1ccc(OC)c(OC)c1OC` (centres unmarked), the “hERG current change (%, negative = inhibition) at 1uM” value is 4.62%.

For `O=C(CSc1nnc(C2CCCCC2)o1)N1CCCCC1`, the “hERG current change (%, negative = inhibition) at 1uM” value is 5.09%.

For the molecule `O=C(O)Cc1sc(-c2ccccc2)nc1-c1cccs1`, the “hERG current change (%, negative = inhibition) at 1uM” value is 5.31%.
